Source: patent US12419305B2, “Antimicrobial compositions” (Firmenich SA, priority 2018, dated 2025)
Where “and” joins values, the source holds several entries; their conditions need not be identical. Equal values may be shown once. At least one read-out could not be matched to a standard name with certainty.

Tests used:
S. haemolyticus 114126 = experiment: BCT test (bacterial contact time), 120 s, log reduction / effect fraction; CI by Compusyn; assay type: cell-based, Staphylococcus haemolyticus; settings: contact 120 s, 25% EtOH
Summary of the method: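 S. haemolyticus 114126 (skin isolate), grown to OD600 1-2 in BHI-TW80 and resuspended at 1-5×10^8 CFU/mL, was mixed 1:1 with ethanolic perfume compositions or ethanol alone for 45, 60 or 120 s. Viable counts came from serial-dilution regrowth (37 °C, turbidity OD600), giving log reduction versus ethanol control; CI was computed from concentration–effect fraction pairs.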

E. coli ATCC 10536 = experiment: BCT test (bacterial contact time), 45 s, log reduction / effect fraction; CI by Compusyn; assay type: cell-based, Escherichia coli; settings: 45 s, in 20% EtOH
Summary of the method: (§1)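 Combination index comes from dose and effect fraction of each blend and its single components, with values under 0.9 taken as synergistic and above 1.0 as antagonistic. Effect reflects log reduction in viable count after short contact of ~1×10^8 bacteria/mL with ethanolic test solutions.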

S. aureus ATCC 6538 = experiment: BCT test (bacterial contact time), 60 s, log reduction / effect fraction; CI by Compusyn; assay type: cell-based, Staphylococcus aureus; settings: 60 s, in 25% EtOH
Summary of the method: as §1

[1] = test system: Salmonella enterica ATCC 10708; experiment: as above; assay type: cell-based; settings: BCT 60 s, in 25% EtOH
Summary of the method: as §1

[2] = test system: Pseudomonas aeruginosa ATCC 15442; experiment: as above; assay type: cell-based; settings: BCT 60 s, in 25% EtOH
Summary of the method: as §1

C. xerosis ATCC 373 = experiment: BCT test (bacterial contact time), 120 s, log reduction / effect fraction; CI by Compusyn; assay type: cell-based, Corynebacterium xerosis; settings: contact 120 s, 25% EtOH
Summary of the method: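 C. xerosis cells grown in BHI-TW80 at 37 °C to OD600 1.6 were exposed to ethanolic perfume compositions for 120 s. Viable counts (log CFU) came from serial dilution and OD600 growth after 37 °C incubation, giving log reduction versus ethanol control. CI was computed from concentrations and effect fractions, with <0.9 taken as synergy.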

## CC(C)=CCC/C(C)=C/CO [Geraniol Pur]
S. haemolyticus 114126; dose 0.05% w/v
  Effect fraction: −0.03
S. haemolyticus 114126; dose 0.1% w/v
  Effect fraction: 0.36
S. haemolyticus 114126; dose 0.125% w/v
  Effect fraction: 0.72
S. haemolyticus 114126; dose 0.15% w/v
  Effect fraction: 0.95
E. coli ATCC 10536; dose 0.040 % w/v
  Log reduction: 0.2
E. coli ATCC 10536; dose 0.050 % w/v
  Effect fraction: 0.26 and 0.18
E. coli ATCC 10536; dose 0.060 % w/v
  Effect fraction: 0.86 and 0.82
  Log reduction: 6.2
E. coli ATCC 10536; dose 0.070 % w/v
  Effect fraction: 1.00
  Log reduction: 7.6
E. coli ATCC 10536; dose 0.080 % w/v
  Effect fraction: 1.00
  Log reduction: 7.6
S. aureus ATCC 6538; dose 0.050 % w/v
  Effect fraction: 0.03
S. aureus ATCC 6538; dose 0.060 % w/v
  Effect fraction: 0.06
S. aureus ATCC 6538; dose 0.070 % w/v
  Effect fraction: 0.21
S. aureus ATCC 6538; dose 0.080 % w/v
  Effect fraction: 0.55
S. aureus ATCC 6538; dose 0.100 % w/v
  Effect fraction: 1.00
[1]; Dose 0.025 % w/v
  Effect fraction: 0.02
[1]; Dose 0.03 % w/v
  Effect fraction: 0.02
[1]; Dose 0.04 % w/v
  Effect fraction: 0.31
[1]; Dose 0.045 % w/v
  Effect fraction: 0.47
[1]; Dose 0.05 % w/v
  Effect fraction: 0.63
[2]; Dose 0.03 % w/v
  Effect fraction: 0.03 and 0.05
  Log reduction: 0.3
[2]; Dose 0.040 % w/v
  Effect fraction: 0.18 and 0.34
[2]; Dose 0.05 % w/v
  Effect fraction: 0.52 and 0.78
[2]; Dose 0.06 % w/v
  Effect fraction: 0.79 and 1.00
[2]; Dose 0.08 % w/v
  Effect fraction: 1.00
  Log reduction: 7.4
C. xerosis ATCC 373; dose 0.1% w/v
  Effect fraction: 0.12
C. xerosis ATCC 373; dose 0.125% w/v
  Effect fraction: 0.50
C. xerosis ATCC 373; dose 0.15% w/v
  Effect fraction: 0.67
C. xerosis ATCC 373; dose 0.175% w/v
  Effect fraction: 0.94
C. xerosis ATCC 373; dose 0.2% w/v
  Effect fraction: 0.97

## OC/C=C/c1ccccc1 [Cinnamic alcohol, (2E)-3-phenyl-2-propen-1-ol]
S. haemolyticus 114126; dose 0.25% w/v
  Effect fraction: 0.02
S. haemolyticus 114126; dose 0.5% w/v
  Effect fraction: 0.56
S. haemolyticus 114126; dose 1.0% w/v
  Effect fraction: 1.00
S. haemolyticus 114126; dose 1.25% w/v
  Effect fraction: 1.00
S. haemolyticus 114126; dose 1.5% w/v
  Effect fraction: 1.00
E. coli ATCC 10536; dose 0.200 % w/v
  Effect fraction: 0.01
E. coli ATCC 10536; dose 0.250 % w/v
  Effect fraction: 0.08
E. coli ATCC 10536; dose 0.300 % w/v
  Effect fraction: 0.19
E. coli ATCC 10536; dose 0.350 % w/v
  Effect fraction: 0.58
E. coli ATCC 10536; dose 0.400 % w/v
  Effect fraction: 1.00
S. aureus ATCC 6538; dose 0.300 % w/v
  Effect fraction: 0.26
S. aureus ATCC 6538; dose 0.350 % w/v
  Effect fraction: 0.38
S. aureus ATCC 6538; dose 0.400 % w/v
  Effect fraction: 0.79
S. aureus ATCC 6538; dose 0.45 % w/v
  Effect fraction: 1.00
S. aureus ATCC 6538; dose 0.500 % w/v
  Effect fraction: 1.00
[1]; Dose 0.15 % w/v
  Effect fraction: 0.06
[1]; Dose 0.175 % w/v
  Effect fraction: 0.12
[1]; Dose 0.2 % w/v
  Effect fraction: 0.19
[1]; Dose 0.25 % w/v
  Effect fraction: 0.63
[1]; Dose 0.3 % w/v
  Effect fraction: 1.00
[2]; Dose 0.25 % w/v
  Effect fraction: 0.54 and 0.87
[2]; Dose 0.3 % w/v
  Effect fraction: 0.89 and 1.00
[2]; Dose 0.4 % w/v
  Effect fraction: 1.00
C. xerosis ATCC 373; dose 0.25% w/v
  Effect fraction: 0.00
C. xerosis ATCC 373; dose 0.5% w/v
  Effect fraction: 0.40
C. xerosis ATCC 373; dose 0.6% w/v
  Effect fraction: 0.59
C. xerosis ATCC 373; dose 0.7% w/v
  Effect fraction: 0.83
C. xerosis ATCC 373; dose 0.8% w/v
  Effect fraction: 1.00
